Experimental data as given in paper PMC6415948 (ACS chemical biology, 2018).

Target: Human IgG1 Fc, G0F N-glycan (agalactosylated, core-fucosylated) (human, G0F N-glycan at Asn297)
Assay: SPR

Row | Kd [nM] | Binder
1 | 290 ± 10 | CD16a N45Q/N162Q, Man5 glycoform (receptor, Man5 oligomannose N-glycans at the remaining N-glycosylation sites (Asn38, Asn74, Asn169)) not shown
2 | 32 ± 4 | CD16a N45Q, Man5 glycoform (receptor, Man5 oligomannose N-glycans at the remaining N-glycosylation sites (Asn38, Asn74, Asn162, Asn169)) not shown
